Experimental data from PMC4336329 (PLoS ONE, 2015).
The campaign covered roughly 310,000 compounds. About 2,200 (0.71%) showed an effect of 50% or more. Effects have a minus sign here. The list shows a part of the results.

Molecular target: human ether-à-go-go-related gene (hERG) potassium channel (human, UniProt Q12809)
Assay: primary screen, population patch clamp on CHO cells stably expressing hERG

human ether-à-go-go-related gene (hERG) potassium channel, sequence (Q12809 whole entry, looked up): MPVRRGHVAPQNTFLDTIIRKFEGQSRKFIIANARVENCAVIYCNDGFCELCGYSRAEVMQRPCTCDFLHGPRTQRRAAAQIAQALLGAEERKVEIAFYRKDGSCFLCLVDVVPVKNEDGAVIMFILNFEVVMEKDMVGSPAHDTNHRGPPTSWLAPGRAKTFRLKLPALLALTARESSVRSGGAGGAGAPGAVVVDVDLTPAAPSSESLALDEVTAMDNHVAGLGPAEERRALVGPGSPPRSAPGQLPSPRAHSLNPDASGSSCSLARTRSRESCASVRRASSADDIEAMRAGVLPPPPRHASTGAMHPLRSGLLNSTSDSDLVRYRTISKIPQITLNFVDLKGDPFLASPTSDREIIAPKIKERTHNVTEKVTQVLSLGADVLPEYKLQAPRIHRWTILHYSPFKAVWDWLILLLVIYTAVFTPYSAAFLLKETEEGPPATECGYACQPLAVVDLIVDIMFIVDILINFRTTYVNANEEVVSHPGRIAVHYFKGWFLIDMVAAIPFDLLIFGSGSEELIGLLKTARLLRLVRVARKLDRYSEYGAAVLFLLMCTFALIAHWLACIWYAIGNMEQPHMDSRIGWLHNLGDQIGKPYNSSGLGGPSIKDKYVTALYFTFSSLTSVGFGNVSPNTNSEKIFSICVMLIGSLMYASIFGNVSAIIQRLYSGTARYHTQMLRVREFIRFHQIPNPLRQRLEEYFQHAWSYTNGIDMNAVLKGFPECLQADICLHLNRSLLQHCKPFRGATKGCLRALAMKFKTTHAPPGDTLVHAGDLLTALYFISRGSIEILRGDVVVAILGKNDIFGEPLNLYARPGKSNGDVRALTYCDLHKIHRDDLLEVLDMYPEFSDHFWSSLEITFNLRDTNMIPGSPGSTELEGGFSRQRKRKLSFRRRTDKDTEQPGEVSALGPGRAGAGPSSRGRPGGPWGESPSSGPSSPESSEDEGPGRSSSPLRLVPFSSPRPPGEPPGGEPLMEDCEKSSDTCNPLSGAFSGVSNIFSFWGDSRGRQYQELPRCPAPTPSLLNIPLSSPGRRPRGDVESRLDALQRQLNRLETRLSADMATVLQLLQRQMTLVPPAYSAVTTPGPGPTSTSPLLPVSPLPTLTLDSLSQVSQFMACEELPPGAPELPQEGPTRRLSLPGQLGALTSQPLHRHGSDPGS

Structure (SMILES)	hERG current change (%, negative = inhibition) at 1uM
N#CCOc1ccccc1/C=C/c1nc2ccccc2c(=O)[nH]1	15.3%
O=C(Nc1ccc2c(c1)OCO2)c1cnn2c1NC(c1ccco1)CC2C(F)(F)F (stereo not shown)	8.91%
CC(=O)Cc1nsc(NC(=O)c2ccc(-c3ccc(Cl)cc3Cl)o2)n1	23.1%
Cc1ccc(-c2nn(-c3cccc(F)c3)cc2CNCCc2ccncc2)o1	3.43%
CC(=O)Nc1ccc2c(CN3C(=O)NC(C)(c4ccc(C)cc4)C3=O)cc(=O)oc2c1 (stereo not shown)	13.5%
CC(=O)N1CCN(S(=O)(=O)c2cccc(C(=O)NNC(=O)Cn3nc(C)cc3C)c2)CC1	15.8%
CCOC(=O)Cn1c2ccc(OC)cc2c2nc3ccccc3nc21	-8.05%
COC(=O)c1cccc(NCN2C(=O)c3ccccc3C2=O)c1	5.2%
CC(=O)Nc1ccc(OCC(O)Cn2ccnc2C)cc1 (stereo not shown)	6.78%
Cl.Clc1ccccc1CN(Cc1ccco1)Cc1nnnn1C1CCCC1	9.88%
COc1cccc(/C=C(\C#N)c2nc3ccc(C)cc3[nH]2)c1OCC(=O)O	14.8%
CCN(CC(=O)NCc1ccc(Cl)cc1)C(=O)c1cc(OC)cc(OC)c1	-31.8%
Cc1cccc(Nc2nc3ccccc3n3nnnc23)c1	11.3%
CC1(C(=O)O)Cc2ccccc2C(=O)O1 (stereo not shown)	16.5%
CN(CCC1CCOCC1)C(=O)CC1C(=O)NCCN1Cc1c(F)cccc1Cl (stereo not shown)	10.4%
CC(C)(C)Nc1nc(Cl)nc(NCc2ccccc2)n1	7.78%
O=C(O)CSc1nnc(-c2ccc(Cl)cc2)n1-c1ccccc1	16.7%
COCC(=O)N1CCCC(C(=O)c2ccc3c4c(cccc24)CC3)C1 (stereo not shown)	-13.1%
CCn1c(SCc2nc3ccccc3[nH]2)nnc1-c1ccncc1	6.85%
Nc1cc(=O)[nH]c(SCC(=O)N2N=C(c3ccc4ccccc4c3)CC2c2ccccc2)n1 (stereo not shown)	9.51%
Cc1nn(C)cc1C(=O)NNC(=S)Nc1ccc(Cl)cc1	12.6%
CCOC(=O)N1CCN(C(=O)c2ccc(-n3c(C)ccc3C)cc2)CC1	10.8%
CCCn1c(SCC(=O)NC2CCCC(C)C2C)n[nH]c1=O (stereo not shown)	12.4%

Structure (SMILES)	hERG current change (%, negative = inhibition) at 1uM
COc1cc(C)c(NC(=O)C(=S)NCc2ccccc2)cc1C	18.3%
Cc1c(Cl)cccc1NC(=O)Nn1cnnc1	16.9%
CCn1cc(C(=O)NC(=S)Nc2ccccc2Br)cn1	6.3%
COc1ccc(OC)c(-n2nnnc2SCC(=O)O)c1	6.78%
O=C(CCCOc1ccc(Cl)cc1Cl)NCc1ccncc1	3.15%
COc1cc(NC(=O)CNc2cccc(S(=O)(=O)N3CCCC3)c2)cc(OC)c1	9.8%
N#CC1(N2CCN(C(=O)c3ccccc3)CC2)CCCCC1	19%
CC(=O)CCn1cnc([N+](=O)[O-])n1	11%
COc1cc(/C=C(/C#N)c2ccccc2)ccc1Oc1ccc([N+](=O)[O-])cn1	12%
CC(Sc1ccc(Cl)cc1)C(=O)N(C)CC(=O)Nc1ccc(N2CCOCC2)cc1 (stereo not shown)	-23.1%
O=C(/C=C\Nc1ccccn1)c1ccccc1	2.73%
C/C(=N\Nc1nc2ccccc2s1)c1ccc(Br)s1	1.19%
O=C(N/N=C/c1ccc2cccc(OCc3ccccc3)c2n1)c1ccc(Br)cc1	6.09%
O=C(O)c1cccc(-n2cc(-c3cccc(C(F)(F)F)c3)cn2)c1	4.88%
Cc1ccc(-n2cccc2/C=C2\C(=N)N3N=C(c4ccco4)SC3=NC2=O)cc1	0.991%
COCCNC(=O)c1ccc(C)cc1C	16.8%
CCOC(=O)C1CCN(C(=O)NC23CC4CC(CC(C4)C2)C3)CC1	-4.34%
Cc1[nH]c2ccccc2c1Cc1nnc(SCCC#N)o1	10.8%
COCCNC(=O)/C(C#N)=C/C(C)=C/c1ccccc1	8.29%
Cc1ncc([N+](=O)[O-])n1CCOC(N)=O	11.3%
COc1ccccc1CNC(=O)C1CCC(CNS(=O)(=O)c2cccs2)CC1 (stereo not shown)	-4.65%
O=C(Nc1ccc2c(c1)OCCO2)N1CCN(c2ccc(F)cc2)CC1	9.85%
O=C(Cc1ccccc1F)NCC(c1ccco1)N1CCCCC1 (stereo not shown)	15.7%
